Values quoted from earlier work, collected in article PMC11006913.
The other results are listed elsewhere or left out.

biological target: HOXD13 S316C (Homo sapiens) (UniProt P35453); conditions: PBM; conditions not shown; double strand, one strand shown; scale: upbm affinity estimate (log intensity, higher = more binding, comparable within an allelic series)
UniProt P35453, sequence (P35453 263-343 S316C): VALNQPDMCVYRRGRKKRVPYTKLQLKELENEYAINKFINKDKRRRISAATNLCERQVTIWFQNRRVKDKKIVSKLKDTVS

Row | Sequence | binding signal
1 | ATAAAACG [8-mer ATAAAACG] | 12.1
2 | ATAAAATG [8-mer ATAAAATG] | 12.1
3 | AATAAAAT [8-mer AATAAAAT] | 12.2
